T1: human CD22-ECD-His (human, UniProt P20273 20-687)
T1 construct: Made in HEK293E, purified on nickel column; also called hCD22-ECD-His; recombinant human CD22-ECD His; not shown: His tag
T1 sequence: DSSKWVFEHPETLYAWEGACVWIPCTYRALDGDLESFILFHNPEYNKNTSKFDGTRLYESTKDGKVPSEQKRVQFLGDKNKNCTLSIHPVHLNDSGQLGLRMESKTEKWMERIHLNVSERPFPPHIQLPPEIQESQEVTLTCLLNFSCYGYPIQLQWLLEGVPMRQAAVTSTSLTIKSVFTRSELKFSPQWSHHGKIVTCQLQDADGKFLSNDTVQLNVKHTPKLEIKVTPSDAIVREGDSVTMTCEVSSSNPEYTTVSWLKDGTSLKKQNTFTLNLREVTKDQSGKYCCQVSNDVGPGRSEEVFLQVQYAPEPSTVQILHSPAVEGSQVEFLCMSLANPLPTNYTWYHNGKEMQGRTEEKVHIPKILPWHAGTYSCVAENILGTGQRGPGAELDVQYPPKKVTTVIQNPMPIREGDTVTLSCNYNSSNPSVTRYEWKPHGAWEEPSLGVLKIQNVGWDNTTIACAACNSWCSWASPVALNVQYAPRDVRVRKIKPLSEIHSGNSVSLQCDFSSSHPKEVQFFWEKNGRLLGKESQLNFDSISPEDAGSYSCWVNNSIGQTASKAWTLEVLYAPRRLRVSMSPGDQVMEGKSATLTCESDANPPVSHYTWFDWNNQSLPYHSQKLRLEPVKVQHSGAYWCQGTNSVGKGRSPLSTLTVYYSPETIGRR

T2: human CD22 (full length, on cells) (human, UniProt P20273 20-847)
T2 construct: Raji cells carry endogenous human CD22; also called CHO-K1-human CD22 2C4; CHO-K1-human CD22 1G5
T2 sequence: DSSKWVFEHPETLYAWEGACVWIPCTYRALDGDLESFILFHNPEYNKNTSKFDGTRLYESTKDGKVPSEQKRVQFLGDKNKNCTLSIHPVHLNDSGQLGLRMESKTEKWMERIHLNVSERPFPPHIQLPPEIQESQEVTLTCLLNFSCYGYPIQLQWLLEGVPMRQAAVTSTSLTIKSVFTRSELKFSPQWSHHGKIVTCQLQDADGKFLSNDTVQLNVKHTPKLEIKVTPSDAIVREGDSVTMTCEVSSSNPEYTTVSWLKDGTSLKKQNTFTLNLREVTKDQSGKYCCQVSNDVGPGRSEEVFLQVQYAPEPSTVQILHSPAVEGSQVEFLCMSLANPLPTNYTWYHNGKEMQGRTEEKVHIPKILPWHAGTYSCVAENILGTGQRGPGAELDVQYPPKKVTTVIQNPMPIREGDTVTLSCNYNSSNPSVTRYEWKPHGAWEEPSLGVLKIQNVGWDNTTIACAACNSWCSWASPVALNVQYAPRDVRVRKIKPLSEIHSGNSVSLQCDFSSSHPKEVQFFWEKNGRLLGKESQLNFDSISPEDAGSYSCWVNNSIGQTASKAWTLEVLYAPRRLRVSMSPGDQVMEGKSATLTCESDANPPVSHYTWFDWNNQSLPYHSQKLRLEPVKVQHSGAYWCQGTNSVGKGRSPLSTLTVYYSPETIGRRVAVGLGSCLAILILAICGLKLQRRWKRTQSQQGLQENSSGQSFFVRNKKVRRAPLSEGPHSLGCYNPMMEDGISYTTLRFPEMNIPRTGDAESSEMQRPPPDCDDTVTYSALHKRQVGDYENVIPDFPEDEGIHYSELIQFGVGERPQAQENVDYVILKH

B1: HA22 scFv-hFc (Fc fusion)
chain: EVQLVESGGGLVKPGGSLKLSCAASGFAFSIYDMSWVRQTPEKCLEWVAYISSGGGTTYYPDTVKGRFTISRDNAKNTLYLQMSSLKSEDTAMYYCARHSGYGTHWGVLFAYWGQGTLVTVSAGGGGSGGGGSGGGGSDIQMTQTTSSLSASLGDRVTISCRASQDISNYLNWYQQKPDGTVKLLIYYTSILHSGVPSRFSGSGSGTDYSLTISNLEQEDFATYFCQQGNTLPWTFGCGTKLEIK[human IgG1 Fc with changes cut from this listing]
B2: S002-NB151-2 VHH-Fc (Fc fusion)
chain: QVQLVESGGGLVQAGDSLRLSCAASGRTFSPSTMAWFRQAPGKERELVARIGWTYGDTYYVDSAKGRFTISMDNVKNTVYLQMNSLKPEDTAVYYCAALFRGGLSYNFSNRGTQVTVSS[human IgG1 Fc with changes cut from this listing]
notes: VHH cloned into vector BI3.4-huIgG1 (hinge and human IgG1 Fc), made in HEK293E; also called 5002-NB151-2
B3: S002-NB151-92 VHH-Fc (Fc fusion)
chain: QVQLVESGGGLVQSGGSLRLSCAASGFTFSDYTMNWVRQAPGKGLEWVSEISSGGHFKSNADSVKDRFTISRDNAKNTLYLQMNSLKPEDTAVYFCAKCPRPSVYCRDYESTSLYRGQGTQVTVSS[human IgG1 Fc with changes cut from this listing]
notes: VHH cloned into vector BI3.4-huIgG1 (hinge and human IgG1 Fc), made in HEK293E; also called 5002-NB151-92
B4: S002-NB150-159n VHH-Fc (Fc fusion)
chain: QVQLVESGGGLVQAGDSLRLACEASGRTATISTMGWFRQAPGKEREFVGRIDWSAESTYIVDSVKGRFIISRDNAKNAGYLQMNSLKPVDTAVYYCAAIVVRERSYKYWGQGTQVTVSS[human IgG1 Fc with changes cut from this listing]
notes: VHH cloned into vector BI3.4-huIgG1 (hinge and human IgG1 Fc), made in HEK293E; also called S002-NB150-15911
B5: S002-NB151-51 VHH-Fc (Fc fusion)
chain: QVQLVESGGGLVQAGGSLRLSCAASGITSDDYAIGWFRQAPGKEREGVSCMYSSDGSTYYADSVKGRFTISRDNAKNTVYLQMNSLRPEDTAVYHCAAGPWCFVTGVGREEWGQGTQVTVSS[human IgG1 Fc with changes cut from this listing]
notes: VHH cloned into vector BI3.4-huIgG1 (hinge and human IgG1 Fc), made in HEK293E; also called 5002-NB151-51
B6: S002-NB151-23 VHH-Fc (Fc fusion)
chain: QVQLVESGGGLVQAGGSLTVSCTNSGRTLSTSTIAWFRQKPGKDSEFVAAIRWSGGMGWYADSVKGRFTISRDNAENTVSLQMNTLQPEDTAVYFCAVSTVPYYGSIYTRVGDYPYWGQGTQVTVSS[human IgG1 Fc with changes cut from this listing]
notes: VHH cloned into vector BI3.4-huIgG1 (hinge and human IgG1 Fc), made in HEK293E; also called 5002-NB151-23
B7: S002-NB151-30 VHH-Fc (Fc fusion)
chain: QVQLVESGGGLVQAGGSLRLSCAASGRASGSGAMGWFRQAPGQERRFVAGIEWSSGGPVYADSVKGRFTLSRDNAKNTVHLQMNSLKPEDTAVYYCAAAPWVFSSPDDYMYWGQGTQVTVSS[human IgG1 Fc with changes cut from this listing]
notes: VHH cloned into vector BI3.4-huIgG1 (hinge and human IgG1 Fc), made in HEK293E; also called 5002-NB151-30
B8: S002-NB151-66 VHH-Fc (Fc fusion)
chain: QVQLVESGGGLVQAGGSLRLACAASGDTVSIYYMGWFRQAPGKEREFVGALSASGQFTDHADSVKGRFTISRDDAQNTVFLHMNDLKPEDTAVYYCAVQRYGWVYRTDKTMYNYWGQGTQVTVSS[human IgG1 Fc with changes cut from this listing]
notes: VHH cloned into vector BI3.4-huIgG1 (hinge and human IgG1 Fc), made in HEK293E
B9: S002-NB151-82 VHH-Fc (Fc fusion)
chain: EVQVVESGGGLVQAGDSLRLSCTTSGRTFYGDYIAWFRQAPGKEREFVAAIAVRGRGTFYGDSVKGRFTISRDNAENTLSLQMNSLKPEDTAVYYCAADAGSYASRGFPVRETGRYDYWGQGTQVTVSS[human IgG1 Fc with changes cut from this listing]
notes: VHH cloned into vector BI3.4-huIgG1 (hinge and human IgG1 Fc), made in HEK293E; also called 5002-NB151-82
B10: S002-NB150-2 VHH-Fc (Fc fusion)
chain: QVQLVESGGGLVQPGGSLRLSCAASGSWFNIAMGWFRQAPGKEREFVAGIRWSDSKTYYADSVKGRFTISGDNAKNTTYLQMNSLKPEDTAVYYCAAQRYYRGSYNRQTNYDHWGQGTQVTVSS[human IgG1 Fc with changes cut from this listing]
notes: VHH cloned into vector BI3.4-huIgG1 (hinge and human IgG1 Fc), made in HEK293E; also called 5002-NB150-2
B11: S002-NB150-5 VHH-Fc (Fc fusion)
chain: QLQLVESGGGLVQAGGSLRLSCVGSGDRVSIALMGWFRQAPGKEREFVAAISPSGGRITYSDSVKGRFTISRDNAKNTVYLQMNSLKRDDTAVYVCAANFRGYLSSSRGSDYAYWGQGTQVTVSS[human IgG1 Fc with changes cut from this listing]
notes: VHH cloned into vector BI3.4-huIgG1 (hinge and human IgG1 Fc), made in HEK293E; also called 5002-NB150-5
B12: S002-NB150-40 VHH-Fc (Fc fusion)
chain: QVQLVESGGGLVQDGGSLRLSCAASGLTFSFYNMGWFRQAPGKEREFVAAISQSGLSTHYADSMKGRFTISRDNAKNTVYLQMNSLNPVDTAAYYCAAGRRGYLASTTNDYEYWGQGTQVTVSS[human IgG1 Fc with changes cut from this listing]
notes: VHH cloned into vector BI3.4-huIgG1 (hinge and human IgG1 Fc), made in HEK293E; also called 5002-NB150-40
B13: S002-NB150-42 VHH-Fc (Fc fusion)
chain: QVQLVESGGGLVQAGDSLKLSCLASGITFSSYYMSWFRQAPGKEREFVAGVGRSGAPSHHADSVKGRFTISRDNAKSAVYLQMNSLQPEDTAVYFCAAKWMAASTTVADYWGQGTQVTVSS[human IgG1 Fc with changes cut from this listing]
notes: VHH cloned into vector BI3.4-huIgG1 (hinge and human IgG1 Fc), made in HEK293E; also called 5002-NB150-42
B14: S002-NB151-36 VHH-Fc (Fc fusion)
chain: QVQLVESGGGLVQAGGSLRLSCAASGLTFSYYGMGWFRQAPGKEREFVAAINWSGTSTYYADSVKDRFTVSRDNAKNTAYLHMNNLKPEDTAVYYCAARKYSSSQAMGLPNDIDYWGQGTQVTVSS[human IgG1 Fc with changes cut from this listing]
notes: VHH cloned into vector BI3.4-huIgG1 (hinge and human IgG1 Fc), made in HEK293E; also called 5002-NB151-36

Tests used:
[1] = target: T1, human CD22-ECD-His; assay: ELISA, coated hCD22-ECD-His, antibody 10 nM
Protocol: (§1) The plate was sealed with plastic film and incubated overnight at 4° C., the plate was washed 2 times with PBS the next day, and then a blocking solution [PBS+2% (w/w) BSA] was added for blocking at room temperature for 2 hours. […] After incubation at 37° C. for 2 hours, the plate was washed 3 times with PBS. HRP (horseradish peroxidase)-labeled secondary antibody (purchased from Sigma, catalog number: A0170) was added, and incubated at 37° C. for 2 hours, and the plate was washed 5 times with PBS. TMB substrate was added at 50 μl/well, and incubated at room temperature for 30 minutes, then a stop solution (1.0 N HCl) was added at 50 μl/well.

[2] = target: T2, human CD22 (full length, on cells); assay: FACS, CHO-K1-human CD22 2C4 cells
Description: The required cells were scale-up cultured in a T-75 cell culture flask to the logarithmic growth phase. For the adherent cell CHO-K1, the medium was aspirated, the cells were washed 2 times with PBS buffer, and then digested with trypsin. After the digestion was terminated, the cells were washed 2 times with PBS buffer. For suspension cell Raji, the medium supernatant was directly centrifuged and discarded, and the cell pellet was washed 2 times with PBS. […] The mixture was centrifuged and washed 3 times with PBS buffer, Alexa Flour 488-labeled secondary antibody (purchased from Invitrogen, catalog number: A-11013) was added at 50 μl/well, and incubated on ice for 1 hour. The obtained mixture was centrifuged and washed 5 times with PBS, and FACS (FACS Canto™, purchased from BD Company) was used for detection and result analysis. Data analysis was performed by software (CellQuest) to obtain the mean fluorescence density (MFI) of the cells. And then software (GraphPad Prism8) was used for analysis, data fitting, and EC50 value calculation.

[3] = target: T1, human CD22-ECD-His; assay: ELISA, coated hCD22-ECD-His, antibody 0.00001 nM
Protocol: as §1

Binder	OD450 [1]	EC50 [2]	Max MFI [2]	OD450 [3]
B1	1.92	1.89 nM	9970	0.06
B2	1.86	1.17 nM	17900	0.17
B3	2.15	1.3 nM	13700	0.06
B4	2.58	2.14 nM	9660	0.07
B5	1.69	1.45 nM	12800	0.07
B6	1.24	2.02 nM	11800	0.26
B7	1.72	2.46 nM	12800	0.11
B8	1.43	2.14 nM	12500	0.14
B9	1.68	1.67 nM	13000	0.13
B10	1.89	0.87 nM	22200	0.17
B11	2.04	0.71 nM	25700	0.15
B12	1.95	1.44 nM	22500	0.11
B13	1.82	0.73 nM	24400	0.09
B14	2.21	1.37 nM	22300	–
